The subject of one test is HSkMC. In words: cytotoxicity call (relative viability < 0.9). The conditions noted are these: 10 µM.
The next test deals with HepG2. In words: cytotoxicity call (relative viability < 0.9). The following applies: 10 µM.
The subject of another test is S. aureus RN4220. In words: growth inhibition call (relative growth <= 0.2). The conditions noted are these: 50 µM.

Here are results for 27 compounds from the antibiotic and cytotoxicity screens of Wong et al. (2023).

This is one part of the list.

Take `CC[C@H]1CN(C)N1C(=O)[C@@H]1CCCO1`: the cytotoxicity call with HSkMC and with HepG2 was “inactive” in each case. Moreover, the growth inhibition call in the test on S. aureus RN4220 was “inactive”.

Take `C[C@@H]1CN([C@H](C)CO)C(=O)c2cc(C#Cc3ccccc3F)cnc2O[C@@H]1CN(C)C(=O)C1CCOCC1`: the cytotoxicity call in the test with HSkMC and with HepG2 was “inactive” each time. The growth inhibition call in the test with S. aureus RN4220 is “inactive”.

For the compound `O=C1OC(c2ccc(O)cc2)(c2ccc(O)cc2)c2ccccc21`, the cytotoxicity call with HSkMC and in the test with HepG2 was “inactive” each time. The growth inhibition call in the test on S. aureus RN4220 is “inactive”.

For the compound `CCCN(C)C[C@@H]1OCCCC[C@@H](C)Oc2ccc(NC(=O)c3ccccc3)cc2C(=O)N([C@H](C)CO)C[C@@H]1C`, the cytotoxicity call in the test on HSkMC and in the test with HepG2 was “inactive” each time. The growth inhibition call in the test with S. aureus RN4220 was “inactive”.

For the compound `O=C1CCC(=O)N1CNc1ccccn1`, the cytotoxicity call in the test with HSkMC and in the test on HepG2 was “inactive” throughout. Moreover, the growth inhibition call with S. aureus RN4220 is “inactive”.

On to `C[C@@H]1CCCCO[C@@H](CN(C)C(=O)NC2CCCCC2)[C@@H](C)CN([C@H](C)CO)C(=O)c2cc(NC(=O)Nc3ccccc3)ccc2O1`, for which the cytotoxicity call in the test on HSkMC and in the test on HepG2 was “inactive” each time. In addition, the growth inhibition call in the test with S. aureus RN4220 was “inactive”.

Turning to `COCCCOc1cc(C[C@@H](C[C@H](N)[C@@H](O)C[C@H](C(=O)NCC(C)(C)C(N)=O)C(C)C)C(C)C)ccc1OC`, the cytotoxicity call in the test with HSkMC and in the test with HepG2 was “inactive” in each case. In the test on S. aureus RN4220, the growth inhibition call was “inactive”.

`Nc1nnc(CO)[nH]1`: the cytotoxicity call in the test with HSkMC and in the test with HepG2 was “inactive” throughout. In the test on S. aureus RN4220, the growth inhibition call was “inactive”.

Consider `C[C@@H]1CN([C@H](C)CO)C(=O)c2cccc(NC(=O)NC3CCCCC3)c2O[C@@H]1CN(C)Cc1ccc(Cl)c(Cl)c1`, for which the cytotoxicity call with HSkMC and in the test on HepG2 was “inactive” in each case. Moreover, the growth inhibition call in the test on S. aureus RN4220 is “inactive”.

In the case of `C[C@@H]1CN([C@@H](C)CO)C(=O)c2cccc(NS(=O)(=O)c3ccc(F)cc3)c2O[C@H]1CN(C)S(=O)(=O)c1ccccc1`, the cytotoxicity call with HSkMC and with HepG2 was “inactive” in each case. Moreover, the growth inhibition call in the test with S. aureus RN4220 was “inactive”.

`C=CCN1C(C)=N[C@H]2C=C[C@H](NCCCO)[C@H]21`: the cytotoxicity call with HSkMC and in the test on HepG2 was “inactive” in each case. In the test with S. aureus RN4220, the growth inhibition call is “inactive”.

As for `COc1ccc(S(=O)(=O)Nc2ccc3c(c2)CC(=O)N([C@H](C)CO)C[C@@H](C)[C@@H](CN(C)C(=O)NC(C)C)O3)cc1`, the cytotoxicity call in the test on HSkMC and in the test with HepG2 was “inactive” each time. The growth inhibition call with S. aureus RN4220 was “inactive”.

Turning to `NCc1cc2ccccc2s1`, the cytotoxicity call with HSkMC and with HepG2 was “inactive” each time. In addition, the growth inhibition call in the test with S. aureus RN4220 is “inactive”.

Turning to `C[C@H](CO)N1C[C@H](C)[C@H](CN(C)C(=O)Nc2cccc3ccccc23)OCCCC[C@H](C)Oc2ccc(NS(=O)(=O)c3cccs3)cc2C1=O`, the cytotoxicity call in the test on HSkMC and in the test with HepG2 was “inactive” in each case. Besides, the growth inhibition call in the test on S. aureus RN4220 was “inactive”.

As to `C=C(C1=CCN(S(=O)(=O)c2ccc(C)cc2)C1)[C@@H](OC(C)=O)[C@@H]1CCCN1S(=O)(=O)c1ccccc1[N+](=O)[O-]`, the cytotoxicity call in the test with HSkMC and with HepG2 was “inactive” in each case. For the same compound, in the test with S. aureus RN4220, the growth inhibition call was “inactive”.

On to `C[C@@H]1CCCCO[C@H](CN(C)CC2CCCCC2)[C@H](C)CN([C@H](C)CO)C(=O)c2cc(NC(=O)CCC(F)(F)F)ccc2O1`, for which the cytotoxicity call with HSkMC and with HepG2 was “inactive” in each case. Besides, in the test on S. aureus RN4220, the growth inhibition call was “inactive”.

For the compound `COc1ccc(S(=O)(=O)Nc2ccc3c(c2)C(=O)N([C@H](C)CO)C[C@@H](C)[C@H](CN(C)S(=O)(=O)c2ccc(Cl)cc2)OCCCC[C@H](C)O3)cc1`, the cytotoxicity call in the test with HSkMC and in the test with HepG2 was “inactive” in each case. Besides, in the test with S. aureus RN4220, the growth inhibition call was “inactive”.

Take `C[C@@H]1CN([C@H](C)CO)C(=O)Cc2cc(NC(=O)CCC(F)(F)F)ccc2O[C@@H]1CN(C)C(=O)Nc1cccc2ccccc12`: the cytotoxicity call in the test with HSkMC and with HepG2 was “inactive” in each case. In addition, in the test with S. aureus RN4220, the growth inhibition call was “inactive”.

As for `C[C@@H]1CCCCO[C@H](CN(C)CC2CC2)[C@H](C)CN([C@@H](C)CO)C(=O)c2cc(NC(=O)Nc3ccc(C(F)(F)F)cc3)ccc2O1`, the cytotoxicity call in the test on HSkMC and in the test on HepG2 was “active” each time. Besides, the growth inhibition call in the test with S. aureus RN4220 was “active”.

Regarding `COc1ccc(NC(=O)N(C)C[C@@H]2Oc3ccc(NS(C)(=O)=O)cc3C(=O)N([C@@H](C)CO)C[C@H]2C)cc1`, the cytotoxicity call with HSkMC and in the test on HepG2 was “inactive” each time. For the same compound, in the test on S. aureus RN4220, the growth inhibition call was “inactive”.

In the case of `C[C@@H]1CN([C@H](C)CO)C(=O)Cc2cc(NC(=O)CCCN(C)C)ccc2O[C@@H]1CN(C)S(=O)(=O)c1ccc(Cl)cc1`, the cytotoxicity call with HSkMC and in the test on HepG2 was “inactive” throughout. Besides, the growth inhibition call in the test with S. aureus RN4220 was “inactive”.

Consider `Cc1ccc(S(=O)(=O)N(C)C[C@H]2Oc3c(NC(=O)C4CCOCC4)cccc3C(=O)N([C@@H](C)CO)C[C@@H]2C)cc1`, for which the cytotoxicity call in the test with HSkMC and with HepG2 was “inactive” in each case. Also, the growth inhibition call in the test with S. aureus RN4220 is “inactive”.

Regarding `CC(C)NC(=O)N(C)C[C@@H]1OCCCC[C@@H](C)Oc2ccc(NC(=O)Nc3cccc4ccccc34)cc2C(=O)N([C@@H](C)CO)C[C@@H]1C`, the cytotoxicity call in the test on HSkMC and in the test with HepG2 was “inactive” throughout. Besides, the growth inhibition call in the test on S. aureus RN4220 was “inactive”.

On to `O=C1CN(S(=O)(=O)Cc2ccccc2)C[C@@H]2[C@H](c3ccc(C#Cc4ccc(F)cc4)cc3)[C@H](CO)N12`, for which the cytotoxicity call in the test with HSkMC is “active”. Moreover, the cytotoxicity call in the test on HepG2 was “inactive”. Also, in the test with S. aureus RN4220, the growth inhibition call was “inactive”.

In the case of `COC(=O)c1ccc(O)cc1`, the cytotoxicity call with HSkMC and in the test on HepG2 was “inactive” in each case. Also, in the test on S. aureus RN4220, the growth inhibition call is “inactive”.

For the compound `Cn1nnnc1SCC1=C(C(=O)[O-])N2C(=O)C(NC(=O)C(O)c3ccccc3)C2SC1.[Na+]` (stereo unspecified), the cytotoxicity call in the test on HSkMC (human skeletal muscle cells) and with HepG2 was “inactive” each time. In the test on S. aureus RN4220, the growth inhibition call was “active”.

Take `CC(C)NC(=O)N(C)C[C@H]1Oc2ccc(NC(=O)Cn3cnnn3)cc2CC(=O)N([C@@H](C)CO)C[C@@H]1C`: the cytotoxicity call in the test with HSkMC and in the test on HepG2 was “inactive” throughout. The growth inhibition call in the test with S. aureus RN4220 was “inactive”.
